Source: PubChem BioAssay AID624417 (National Center for Advancing Translational Sciences (NCATS), 2012)
Hit rate of the full screen: of about 410,000 compounds, about 6,400 (1.6%) were called active. This list was built around the results that the source calls inconclusive (neither active nor inactive); the mix of calls is not that of the screen. Calls come from the whole dose curve; as a rule, active = well fitted inhibition curve with a large enough effect; inconclusive = small, poorly fitted or top-dose-only effect; inactive = no such curve, though single readings can be large or run the other way. Potencies of inconclusive entries are left out as doubtful fits.

Each molecule was assayed against Glucagon-like peptide 1 receptor (Homo sapiens) (UniProt P43220) (assay: qHTS of GLP-1 Receptor Inverse Agonists (Inhibition Mode)). Settings: HEK293 GLP-1R CRE-luciferase, luminescence, 24 h, GLP-1R form is constitutively active; activity change, negative = inhibition: at 38.3 µM (top of the series) unless noted.
Chain of UniProt P43220 (P43220 whole entry, looked up): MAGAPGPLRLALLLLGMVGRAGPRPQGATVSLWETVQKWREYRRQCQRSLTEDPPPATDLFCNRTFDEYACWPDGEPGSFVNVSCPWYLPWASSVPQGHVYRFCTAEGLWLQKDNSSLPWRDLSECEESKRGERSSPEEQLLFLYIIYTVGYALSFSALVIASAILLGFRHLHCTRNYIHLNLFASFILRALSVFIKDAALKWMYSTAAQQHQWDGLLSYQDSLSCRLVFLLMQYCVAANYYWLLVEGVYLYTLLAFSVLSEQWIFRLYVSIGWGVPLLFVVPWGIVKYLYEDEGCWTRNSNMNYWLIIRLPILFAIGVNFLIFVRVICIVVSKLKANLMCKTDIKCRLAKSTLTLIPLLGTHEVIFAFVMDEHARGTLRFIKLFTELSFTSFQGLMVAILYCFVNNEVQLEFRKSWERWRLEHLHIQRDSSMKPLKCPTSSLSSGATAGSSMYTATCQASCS
In short: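 Inverse agonists were sought by their lowering of basal cAMP reporter luciferase output in HEK293 cells stably carrying constitutively active human GLP-1R, after 24 h compound treatment.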
% is set by controls: 0 for no effect and ±100 for the full control effect; potency is the fitted concentration of half-maximal effect; tags give direction and shape of the fitted curve.
Note: nearly all actives have a fitted effect of over 55% in size.

Compound | Potency | activity change, negative = inhibition
CN(C)CC/C=C1/c2ccccc2Sc2c(O)cc(Cl)cc21 | inconclusive [inhibitor, single point] | –
Cc1cc(NS(=O)(=O)c2ccc(NC(=O)C(C)Oc3ccc4c(C)cc(=O)oc4c3)cc2)no1 (stereo not drawn) | – | inactive: 12.3%
CC(NC(=O)c1c(N)[nH]c(C(=O)c2ccccc2)c1-c1ccccc1Br)c1cccc2ccccc12 (stereo not drawn) | inconclusive [inhibitor, single point] | –
COC(=O)[C@@]12CCCCN1[C@H](c1ccc(-c3ccc(F)cc3)cc1)[C@@H]1C(=O)N(C)C(=O)[C@@H]12 | inconclusive [inhibitor, partial curve, poor fit] | –
CNc1ccccc1C(C)(C)c1cc(-c2cccc(Br)c2)no1 | active: 2.82 µM | –
O=C(NCCN1CCOCC1)c1cc(Sc2cccc(Cl)c2)nc2ccccc12 | inconclusive [inhibitor, single point] | –
Cc1c(C)n(C(=O)CN2CCN(c3ccccn3)CC2)c2ccccc12 | inconclusive [inhibitor, single point] | –
CC(=O)c1ccccc1OCCOc1ncnc2sccc12 | – | inactive: 56.6%
CCCCC(=O)NNC(=S)NC(=O)CCC | – | inactive: 6.05%
CCOC(=O)C1CCCN(CC(=O)c2ccc(F)cc2)C1 (stereo not drawn) | – | inactive: 6.72%
OC(CN=c1sc2ccccc2n1CC(O)COc1ccccc1)COc1ccccc1 (stereo not drawn) | inconclusive [inhibitor, single point] | –
Cc1ccc(S(=O)(=O)N(C)CC(=O)NC2CC(C)(C)NC(C)(C)C2)cc1 | inconclusive [inhibitor, single point] | –
CC1CCN(S(=O)(=O)c2ccc(C(=O)N3CCN(c4ccccc4F)CC3)cc2)CC1 | inconclusive [inhibitor, partial curve, poor fit] | –
CCOC(=O)C1(CCOc2ccccc2)CCN(Cc2ccc(OC)c(O)c2)CC1 | inconclusive [inhibitor, single point] | –
FC(F)c1nc2nc(Cl)c(Cl)nc2[nH]1 | active: 14.1 µM | –
Cc1ccccc1CNc1ccc(C(CC(N)=O)NC(=O)c2ccccc2)cc1[N+](=O)[O-] (stereo not drawn) | inconclusive [inhibitor, partial curve, poor fit] | –
Cc1ccccc1C(=O)NC1CCN(CC(=O)Nc2ccc(Br)cc2)CC1 | inconclusive [inhibitor, partial curve, poor fit] | –
O=C1CC(NNc2ccccc2)C(=O)N1c1ccc(N2CCCCC2)cc1 (stereo not drawn) | inconclusive [inhibitor, single point] | –
Cc1cc(C)n(-c2nc(SCC(=O)O)c3c4c(sc3n2)COC(C)(C)C4)n1 | inconclusive [inhibitor, single point] | –
Cc1c(C(c2ccccc2)c2c(C)n(C)n(-c3ccccc3)c2=O)c(=O)n(-c2ccccc2)n1C | – | inactive: 7.66%
CN(C)S(=O)(=O)c1ccc(C(=O)Nc2nnc(SCC(=O)NCC3CCCO3)s2)cc1 (stereo not drawn) | – | inactive: -5.04%
COc1cc(NC(=O)CN2c3ccccc3S(=O)(=O)c3ccccc32)cc(OC)c1 | – | inactive: -22.4%

Compound | Potency | activity change, negative = inhibition
CCCC(O)c1nc2ccccc2n1Cc1ccccc1OC (stereo not drawn) | inconclusive [inhibitor, partial curve, poor fit] | –
O=c1cc(N2CCCC2)c2ccccc2o1 | – | inactive: 12.5%
CSCCC1NC2(C(=O)Nc3c(C)cc(Cl)cc32)[C@@H]2C(=O)N(C3CCCC3)C(=O)[C@H]12 (stereo partly drawn) | inconclusive [inhibitor, partial curve, poor fit] | –
CCCc1ccc(OCCNC(=O)c2ccco2)cc1 | inconclusive [inhibitor, single point] | –
O=C(CN1C(=O)CCC1=O)NNc1ccc2ccccc2c1 | inconclusive [inhibitor, full curve, poor fit] | –
COc1ccc(/C=C2\SC(=O)N(CCNC(=O)C3=COCCO3)C2=O)cc1 | – | inactive: -26.6%
CCOC(=O)C1(Cc2cccc(OC)c2)CCN(Cc2cccc(OCC)c2O)CC1 | inconclusive [inhibitor, partial curve, poor fit] | –
Cc1c(NC(=O)c2cc3ccccc3o2)cccc1-n1cnnn1 | – | inactive: 32.1%
N#C/C(C(=O)c1ccccc1)=C1/CCCN1 | – | inactive: 0%
CCc1nnc(SCc2ccc(OC)cc2)c2cc3sc(C)cc3n12 | – | inactive: 0.912%
CC(C)c1ccc(NC(=O)NCc2ccc3c(c2)OCO3)cc1 | inconclusive [inhibitor, partial curve, poor fit] | –
COc1cc(CCNC(=O)c2ccc3c(c2)c(C)c(C)n3Cc2cccc(C)c2)cc(OC)c1OC | inconclusive [inhibitor, partial curve, poor fit] | –
CC1CCN(c2ccc(NC(=O)C3CCCN3S(=O)(=O)c3ccc(F)cc3)cc2)CC1 (stereo not drawn) | inconclusive [inhibitor, partial curve, poor fit] | –
COc1ccc(OC)c(Nc2ncnc3c2nc2n3CCCC2)c1 | – | inactive: 4.81%
Cc1ccccc1C(=O)O/N=C(\N)c1ccccc1 | inconclusive [inhibitor, partial curve, poor fit] | –
C/C(=N\NC(=O)c1nnn(-c2nonc2N)c1-c1ccccc1)c1ccccc1O | inconclusive [inhibitor, partial curve, poor fit] | –
CCOc1cc(N2CCOCC2)c(OCC)cc1NC(=O)Cc1cccc2ccccc12 | inconclusive [inhibitor, partial curve, poor fit] | –
Cc1cc(C(=O)NCc2cccc(Br)c2)c2c(C)nn(-c3ccccc3)c2n1 | – | inactive: -5.92%
CCOc1ccc(Nc2cc(C)c3ccccc3n2)cc1 | inconclusive [inhibitor, single point] | –
O=C(Nc1ccc(Nc2ccccc2)cc1)c1ccc(Cl)c([N+](=O)[O-])c1 | inconclusive [inhibitor, single point] | –
Cc1ccc(NC(=O)c2ccc(CNS(=O)(=O)c3ccc4c(c3)C(C)(C)C(=O)N4C)cc2)cc1C | inconclusive [inhibitor, partial curve, poor fit] | –
